Test results: PubChem BioAssay AID624171 (National Center for Advancing Translational Sciences (NCATS), 2012)
In all, about 410,000 compounds went through this assay and about 1,200 (0.29%) were called active. Inconclusive results, whose numbers are uncertain, are shown with a selection of clear calls. The call rests on the fitted dose curve; in most records, active means well fitted activation curve with a large enough effect; inconclusive means small, poorly fitted or top-dose-only effect; inactive means flat fitted curve, though single readings scatter. Potencies of inconclusive entries are doubtful fits and often do not repeat.

Assay: qHTS of Nrf2 Activators; further: nearly all actives have a fitted effect of over 65% in size
Conditions: AREc32 ARE-luciferase reporter (MCF7-derived line), luminescence, 24 h; series mostly up to 46.1 µM
Procedure, shortened: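 Quantitative high-throughput format: AREc32 reporter cells, 1000 per well, received compound by pin transfer and were incubated 24 hr at 37 deg C, 5% CO2, before Steady-Glo luminescence detection.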
Potency means the concentration at half of the fitted maximal effect; tags describe the fitted curve by direction and shape.

Structure (SMILES) | Potency
COc1cc(OC)c2cc(C(=O)N/N=C/c3cccc(OC)c3O)[nH]c2c1 | inactive
Cc1ccc(CC(=O)Nc2cc(C)on2)cc1 | inconclusive: 12.6 µM [activator, partial curve]
O=C(NCc1ccccc1)Nc1cccn(Cc2ccccc2)c1=O | inactive
CCCCN(CC)CCCNC(=O)Nc1sc2nc3n(c(=O)c2c1C)CCC(C)CC3 (stereo unspecified) | inactive
Cc1ccc2onc(CC(=O)Nc3ccc(C(C)C)cc3)c2c1 | inactive
Cc1ccc2c(c1)N(CCC(=O)NCc1ccccc1Cl)C(=O)CO2 | inactive
CCc1c(C2(O)CCCCC2)[nH]c2cnccc12 | inactive
CCOC(=O)N1CCN(C(c2cccnc2)c2ccc3cccnc3c2O)CC1 (stereo unspecified) | inconclusive: 35.5 µM [activator, single point]
Cc1ccc(O)c(NC(=O)c2cc(-c3ccccc3O)no2)c1 | inconclusive: 8.91 µM [activator, partial curve]
Cc1ccc(C(=O)Cn2c3[n+](c4ccccc42)CC(O)CS3)cc1 (stereo unspecified) | inactive
Cc1nnc(NC(=O)CSc2ccc(-c3ccco3)nn2)s1 | inconclusive: 14.1 µM [activator, partial curve, poor fit]
O=C(CCCN1C(=O)/C(=C/c2cccc(Br)c2)SC1=S)NCCCN1CCOCC1 | inconclusive: 12.6 µM [activator, single point]
CC1CN(C(=O)COC(=O)c2cc(=O)[nH]c3ccccc23)CC(C)O1 (stereo unspecified) | inactive
CC1(C)CC(=O)c2cnc(NC(=O)c3ccco3)nc2C1 | inconclusive: 11.2 µM [activator, partial curve, poor fit]
COC(=O)c1sccc1NC(=O)c1c(F)c(F)c(F)c(F)c1F | inconclusive: 17.8 µM [activator, partial curve, poor fit]
COc1cc(/C=C2\SC(N)=NC2=O)cc(OC)c1 | inconclusive: 20 µM [activator, single point]
Cc1cc(NS(=O)(=O)c2ccccc2)cc(Cl)c1O | inconclusive: 31.6 µM [activator, single point]
CCOc1ccc(C(CN2CCOCC2)C(C)=O)cc1OC (stereo unspecified) | inconclusive: 3.16 µM [activator, single point]
CCOc1cc2ccccc2cc1C(=O)Nc1ccccn1 | inconclusive: 2.24 µM [activator, full curve, poor fit]
Cc1ccc(-c2cc(-c3ccc(F)cc3)c(C#N)c(N)n2)o1 | inconclusive: 28.2 µM [activator, single point]
O=[N+]([O-])c1ccc(CNc2cccc(Cl)c2)s1 | inconclusive: 17.8 µM [activator, single point]
COC(=O)c1ccc2nc(-c3cccc(Br)c3)c(Cc3ccccc3OC)n2c1 | inconclusive: 3.98 µM [activator, full curve]
CCOc1ccc(CCNC(=O)Cn2ccc3cc(S(=O)(=O)N4CCCC4)ccc32)cc1 | inactive
CN(C)S(=O)(=O)Oc1ccsc1C(=O)Nc1ccc(C(F)(F)F)cc1 | inconclusive: 11.2 µM [activator, partial curve, poor fit]
Cc1cccc(NC(=S)NC(=O)c2cccs2)n1 | inconclusive: 8.91 µM [activator, partial curve]
O=C(O)c1ccccc1CSc1nc2ccccc2n1Cc1ccccc1C(=O)O | inactive

Structure (SMILES) | Potency
C[n+]1c2n(c3ccccc31)N=C(c1ccc(Br)cc1)CS2 | inconclusive: 12.6 µM [activator, partial curve, poor fit]
Clc1ccc(/C=N/Nc2ccccn2)cc1 | inconclusive: 17.8 µM [activator, partial curve, poor fit]
Cc1cnn(CCC(=O)NNC(=S)Nc2ccc(F)cc2)c1 | inactive
Cc1cc(OC(=O)c2c(Cl)cccc2Cl)nc(C)n1 | inconclusive: 12.6 µM [activator, partial curve, poor fit]
S=C(Nc1ccccn1)Nc1ccccc1Cl | inconclusive: 20 µM [activator, partial curve, poor fit]
c1ccc(Sc2cccc3ccccc23)c(CNC2=NCCN2)c1 | inactive
Cc1cccc(Oc2sc(C(=O)c3ccccc3)c(N)c2C#N)c1 | inconclusive: 22.4 µM [activator, single point]
FC(F)(F)c1ccc(N2CCOCC2)c(Nc2nc3ccccc3n3cnnc23)c1 | inactive
O=C(Cn1cc2c(n1)CCCC2)Nc1cc(C(F)(F)F)ccc1Cl | inactive
COc1ccc(OC)c(C(=O)CSc2nc3ncccc3[nH]2)c1 | inactive
CC1=NN(c2ccccc2)C(=O)/C1=C/c1ccc(Cl)cc1 | inactive
CCS(=O)(=O)C1=NN2C(=N)/C(=C\c3ccc(SCc4ccco4)o3)C(=O)N=C2S1 | inconclusive: 31.6 µM [activator, single point]
CC(C)CC(N)c1csc(Nc2cc(Oc3ccccc3)ncn2)n1 (stereo unspecified) | inactive
Cn1c(SCC(=O)N2CCc3ccccc3C2)nnc1-c1ccncc1 | inactive
Oc1ccc(N=C/C=C/c2cccc(Br)c2)cc1-c1nc2ccccc2s1 | inconclusive: 17.8 µM [activator, single point]
CC1CCCN(CCS(=O)(=O)c2ccccc2)C1 (stereo unspecified) | inconclusive: 17.8 µM [activator, single point]
COCCNC(=O)c1ccc(-n2c(-c3ccccc3)cc3c2CCC(C)C3)cc1 (stereo unspecified) | active: 10 µM
O=C(c1cc(-c2cccc(Cl)c2)nc2ccccc12)N1CCN(c2ccccn2)CC1 | inactive
O=C(Cc1ccc(Cl)cc1)Oc1cccc2cccnc12 | inconclusive: 35.5 µM [activator, single point]
Cc1ccc(N/C=C/C(=O)c2ccco2)c(O)c1 | inconclusive: 22.4 µM [activator, single point]
COc1ccc(/C=C/C(=O)c2ccoc2)cc1 | inconclusive: 22.4 µM [activator, single point]
C/C(=N\NC(=O)c1ccccc1Cl)c1ccccn1 | inactive
c1coc(CNc2nc3ccccc3s2)c1 | inconclusive: 15.8 µM [activator, partial curve, poor fit]
Clc1ccc(-c2nnc(Sc3nc4ccccc4o3)c3ccccc23)cc1 | inconclusive: 28.2 µM [activator, single point]
Cc1ccc(C2=Nc3ccccc3N(C(=O)c3ccccc3)C(C)C2)cc1 (stereo unspecified) | inactive
O=C(Nc1nc2c(ccc3ccccc32)s1)c1ccco1 | inconclusive: 0.562 µM [activator, full curve, poor fit]

Structure (SMILES) | Potency
CCOC(=O)c1cn(-c2c(Cl)cccc2Cl)c2cc(Cl)c([N+](=O)[O-])cc2c1=O | active: 11.2 µM
CC#CCC(CC#CC)c1nc2ccccc2c(=O)n1N | inactive
CCn1c(-c2ccc3ncccc3c2)n[nH]c1=S | inactive
Cc1ccc(S(=O)(=O)NCCCOC(=O)Nc2ccncc2)cc1 | inactive
N#CC(C#N)=C1C=CC=CN1/C(=C\c1ccco1)C(=O)c1ccc(Br)cc1 | inconclusive: 3.16 µM [activator, single point]
Fc1ccc(-c2csc(-c3ccccn3)n2)cc1F | inconclusive: 11.2 µM [activator, partial curve, poor fit]
Cc1onc(-c2ccccc2)c1C(=O)c1c[nH]c(C(=O)NCCCN2CCOCC2)c1 | inactive
N#Cc1cnc2cc(-c3ccccc3)nn2c1N | inconclusive: 3.98 µM [activator, full curve, poor fit]
CC(O)/C=C/c1ccc2ccccc2n1 (stereo unspecified) | inconclusive: 15.8 µM [activator, single point]
COc1ccc(CCN2C(=O)N(c3ccc(C)cc3)C(=O)C2CC(=O)Nc2ccc(OC)cc2)cc1 (stereo unspecified) | inactive
O=C(Nc1cccc(O)c1)c1cc(-c2ccccc2F)no1 | inconclusive: 28.2 µM [activator, single point]
COc1ccc(C(=O)NNC(=O)C(=O)/C=C(\O)c2ccc(C)cc2)cc1 | inactive
COc1ccc(C(=O)OC(C)C(=O)NC(C)CCc2ccccc2)c(OC)c1 (stereo unspecified) | inactive
Cc1ccc(C)c(CSc2cn(CCNC(=O)c3cccs3)c3ccccc23)c1 | inactive
Nc1ccccc1C(=O)NNC1=C(C(=O)C(F)(F)F)CCC1 | inconclusive: 17.8 µM [activator, single point]
CC(C)(O)C1Cc2cc(/C=C/C(=O)O)c(O)cc2O1 (stereo unspecified) | inconclusive: 7.94 µM [activator, partial curve, poor fit]
Cc1ccc(O)c(Nc2c3ccccc3nc3ccccc23)c1 | inconclusive: 15.8 µM [activator, single point]
CC[C@H](C)/C=C/C1=CC2=C(Cl)C(=O)[C@@]3(C)OC(=O)C(C(=O)[C@H](C)[C@@H](C)O)=C3C2=CO1 | inconclusive: 11.2 µM [activator, single point]
CCOc1ccc2[nH]c(C)c(CN(C)C)c(=O)c2c1 | inactive
N#Cc1ccc(/C=C\c2nccc3c2[nH]c2ccccc23)cc1 | inconclusive: 20 µM [activator, partial curve, poor fit]
Cc1ccc2nsnc2c1NC(=O)c1ccc([N+](=O)[O-])cc1 | inactive
O=C(CSc1ccc(-c2ccco2)nn1)NCCc1ccccc1 | inconclusive: 14.1 µM [activator, partial curve, poor fit]
COc1ccc(N2CCN(C(=O)c3ccccc3NS(=O)(=O)c3ccccc3)CC2)cc1 | inactive
Nc1cc(Cl)ccc1CN1C(=O)c2ccccc2C1=O | inconclusive: 3.16 µM [activator, partial curve]
